{"source": "paper PMC4336329", "about": "(PLoS ONE, 2015)", "note": "The campaign covered roughly 310,000 compounds. About 2,200 (0.71%) showed an effect of 50% or more. Effects have a minus sign here. Some of the results follow.", "data": [{"target": "human ether-à-go-go-related gene (hERG) potassium channel (human, UniProt Q12809)", "sequence (Q12809 whole entry, looked up)": "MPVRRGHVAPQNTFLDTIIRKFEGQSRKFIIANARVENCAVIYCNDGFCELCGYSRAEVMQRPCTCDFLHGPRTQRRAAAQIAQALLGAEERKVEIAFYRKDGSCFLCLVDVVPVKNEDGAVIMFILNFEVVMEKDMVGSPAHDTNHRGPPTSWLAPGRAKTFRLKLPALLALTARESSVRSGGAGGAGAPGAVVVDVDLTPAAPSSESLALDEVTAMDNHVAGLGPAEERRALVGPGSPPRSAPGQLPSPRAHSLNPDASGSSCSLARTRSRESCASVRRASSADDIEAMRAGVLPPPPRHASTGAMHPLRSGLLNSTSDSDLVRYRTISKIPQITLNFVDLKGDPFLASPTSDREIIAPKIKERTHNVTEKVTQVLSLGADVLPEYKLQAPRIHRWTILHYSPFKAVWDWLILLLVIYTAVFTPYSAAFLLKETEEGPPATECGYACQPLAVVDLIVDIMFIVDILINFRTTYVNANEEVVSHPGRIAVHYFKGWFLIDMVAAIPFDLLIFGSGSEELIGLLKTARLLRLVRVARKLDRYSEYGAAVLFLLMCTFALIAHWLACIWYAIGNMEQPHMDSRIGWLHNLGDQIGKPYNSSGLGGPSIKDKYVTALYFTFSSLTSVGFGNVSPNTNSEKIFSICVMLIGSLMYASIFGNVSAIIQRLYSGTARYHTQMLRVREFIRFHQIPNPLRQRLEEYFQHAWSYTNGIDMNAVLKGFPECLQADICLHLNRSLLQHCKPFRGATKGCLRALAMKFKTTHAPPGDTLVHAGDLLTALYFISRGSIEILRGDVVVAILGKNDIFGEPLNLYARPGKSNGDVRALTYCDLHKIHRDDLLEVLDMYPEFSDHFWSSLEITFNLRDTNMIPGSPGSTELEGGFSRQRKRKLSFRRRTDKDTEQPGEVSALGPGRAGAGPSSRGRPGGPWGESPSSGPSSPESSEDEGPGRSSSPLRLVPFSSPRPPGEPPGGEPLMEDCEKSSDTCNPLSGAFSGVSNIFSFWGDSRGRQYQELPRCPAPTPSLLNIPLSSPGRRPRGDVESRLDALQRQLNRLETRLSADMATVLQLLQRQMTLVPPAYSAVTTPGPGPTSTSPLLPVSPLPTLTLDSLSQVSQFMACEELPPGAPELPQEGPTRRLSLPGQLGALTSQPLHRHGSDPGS", "assay": "primary screen, population patch clamp on CHO cells stably expressing hERG", "units": {"hERG current change (%, negative = inhibition) at 1uM": "%"}, "values": [{"smiles": "CCOC(=O)c1sc(=NC(=O)c2ccc(OC(C)C)cc2)n(C)c1C", "hERG current change (%, negative = inhibition) at 1uM": 6.28}, {"smiles": "CC1CCc2c(sc(NC(=O)CCCn3cnc([N+](=O)[O-])n3)c2C(N)=O)C1", "note": "(stereo not drawn)", "hERG current change (%, negative = inhibition) at 1uM": 0.451}, {"smiles": "CC1Cc2ccccc2N1C(=O)CN1C(=O)NC(C)(CCc2ccccc2)C1=O", "note": "(stereo not drawn)", "hERG current change (%, negative = inhibition) at 1uM": -4.95}, {"smiles": "Cc1ccc(C(=O)NC2=NCCS2)cc1Cl", "hERG current change (%, negative = inhibition) at 1uM": 11.3}, {"smiles": "COC(=O)CN(c1nc(C)c(Cl)c(OC)n1)S(=O)(=O)c1ccc(C)cc1", "hERG current change (%, negative = inhibition) at 1uM": -1.7}, {"smiles": "COc1ccc(C(=O)CCC(C)(C)[N+](=O)[O-])cc1OC", "hERG current change (%, negative = inhibition) at 1uM": 10.4}, {"smiles": "COCC(C)NC(=O)C1c2ccccc2Oc2ccccc21", "note": "(stereo not drawn)", "hERG current change (%, negative = inhibition) at 1uM": 9.45}, {"smiles": "COc1ccc(OCC(O)CN(C2CCCCC2)C2CCCCC2)cc1.Cl", "note": "(stereo not drawn)", "hERG current change (%, negative = inhibition) at 1uM": -37.9}, {"smiles": "CCc1cccc(C)c1NC(=O)c1ccccc1", "hERG current change (%, negative = inhibition) at 1uM": 8.47}, {"smiles": "CCc1ccc(C(=O)COc2ccc(NC(C)=O)cc2)cc1", "hERG current change (%, negative = inhibition) at 1uM": -5.26}, {"smiles": "Cc1ccccc1NC(=S)NC(NC(=O)c1ccccc1C)C(Cl)(Cl)Cl", "note": "(stereo not drawn)", "hERG current change (%, negative = inhibition) at 1uM": 10.6}, {"smiles": "O=C(Nc1ccc(Cl)cn1)c1cc2ccccc2o1", "hERG current change (%, negative = inhibition) at 1uM": 9.1}, {"smiles": "O=C(Nc1ccccc1-c1nnc(SCc2ccc(Cl)cc2Cl)o1)c1ccccc1", "hERG current change (%, negative = inhibition) at 1uM": 0.248}, {"smiles": "O=C(CSc1nnc(COc2ccc(F)cc2)o1)N1c2ccccc2CCc2ccccc21", "hERG current change (%, negative = inhibition) at 1uM": 9.76}, {"smiles": "O=C(CNC(=O)c1ccc(Cl)c([N+](=O)[O-])c1)OC1CCCCC1=O", "note": "(stereo not drawn)", "hERG current change (%, negative = inhibition) at 1uM": 2.3}, {"smiles": "CCOc1ccc(NC(=O)CCC(=O)NNC(=O)COc2ccc(C)cc2Br)cc1", "hERG current change (%, negative = inhibition) at 1uM": 10.5}, {"smiles": "O=S(=O)(Nc1cccc(S(=O)(=O)N2CCCC2)c1)c1ccc(Cl)s1", "hERG current change (%, negative = inhibition) at 1uM": -1.35}, {"smiles": "COc1cc(OC)cc(N2C(=O)CC(N3CCC(C(=O)N4CCCCC4)CC3)C2=O)c1", "note": "(stereo not drawn)", "hERG current change (%, negative = inhibition) at 1uM": 18.6}, {"smiles": "COc1ccccc1NC(=O)Cn1nnc(C(=O)Nc2ccccc2)c1N", "hERG current change (%, negative = inhibition) at 1uM": 6.23}, {"smiles": "Cc1ccc(/C=N/NC(=O)c2ccccn2)s1", "hERG current change (%, negative = inhibition) at 1uM": 23.6}, {"smiles": "Cc1ccccc1NC(=O)c1cccc(N2C(=O)C3C4CCC(C4)C3C2=O)c1", "note": "(stereo not drawn)", "hERG current change (%, negative = inhibition) at 1uM": 24.4}, {"smiles": "Cc1oc(S(=O)(=O)N2CCCCC2)cc1NC(=O)Nc1ccc(F)cc1", "hERG current change (%, negative = inhibition) at 1uM": 9.12}, {"smiles": "Cc1ccccc1NC(=O)c1ccc([N+](=O)[O-])o1", "hERG current change (%, negative = inhibition) at 1uM": 9.82}, {"smiles": "CCOc1ccc(C(C(=O)NC2CCCC2)N(Cc2ccccc2)C(=O)c2nsc(Cl)c2Cl)cc1", "note": "(stereo not drawn)", "hERG current change (%, negative = inhibition) at 1uM": -2.29}, {"smiles": "Cl.Cn1nnnc1SCCNCc1cccnc1", "hERG current change (%, negative = inhibition) at 1uM": -1.17}, {"smiles": "COC(=O)c1ccc(NCC(=O)c2ccccc2)cc1", "hERG current change (%, negative = inhibition) at 1uM": 7.17}, {"smiles": "O=C(C1=COCCO1)N1CCN(c2nc3ccc([N+](=O)[O-])cc3s2)CC1", "hERG current change (%, negative = inhibition) at 1uM": 1.08}, {"smiles": "Cc1ccc(OCCCC(=O)Nc2nc3ccccc3[nH]2)cc1", "hERG current change (%, negative = inhibition) at 1uM": 11.9}, {"smiles": "C=CCn1c(SCC(=O)NCc2ccco2)nc2sc3c(c2c1=O)CCCC3", "hERG current change (%, negative = inhibition) at 1uM": 4.79}, {"smiles": "CC(=O)N1CCCc2cc(S(=O)(=O)Nc3ccccc3C)ccc21", "hERG current change (%, negative = inhibition) at 1uM": 24.1}, {"smiles": "c1cncc(C(c2nnnn2C2CCCC2)N2CCCC2)c1", "note": "(stereo not drawn)", "hERG current change (%, negative = inhibition) at 1uM": 1.07}, {"smiles": "CCCN1CCN(CC(O)COC(c2ccc(OC)cc2)c2ccc(OC)cc2)CC1.O=C(O)C(=O)O", "note": "(stereo not drawn)", "hERG current change (%, negative = inhibition) at 1uM": 5.48}, {"smiles": "CC1(C)CC(=O)C(C2C3=C(CC(C)(C)CC3=O)Oc3ccccc32)C(=O)C1", "note": "(stereo not drawn)", "hERG current change (%, negative = inhibition) at 1uM": 14.2}, {"smiles": "Cc1ccc(C2=NOC(=O)/C2=C\\c2ccccc2)cc1", "hERG current change (%, negative = inhibition) at 1uM": 12.1}, {"smiles": "CC(=O)Nc1ccc(C2=CC(=O)C[C@H](c3ccc(Cl)cc3)C2)cc1", "hERG current change (%, negative = inhibition) at 1uM": 9.52}, {"smiles": "COc1ccc(-c2cc(C)no2)cc1S(=O)(=O)NCC(C)c1ccccc1", "note": "(stereo not drawn)", "hERG current change (%, negative = inhibition) at 1uM": 8.4}, {"smiles": "CN(C)/C=N/c1cc(=O)n(C)c(=O)n1Cc1ccccc1", "hERG current change (%, negative = inhibition) at 1uM": 14.5}, {"smiles": "Cc1ccccc1C(=O)Nc1ccccc1-n1cccc1", "hERG current change (%, negative = inhibition) at 1uM": 12.3}, {"smiles": "Cc1ccccc1C(=O)NNC(=O)c1ccc2nc[nH]c2c1", "hERG current change (%, negative = inhibition) at 1uM": 15.8}, {"smiles": "COc1nc(N/N=C/c2ccccc2F)nc(N2CCCCC2)n1", "hERG current change (%, negative = inhibition) at 1uM": -5.82}, {"smiles": "COc1ccccc1N1CCN(C2CCC(C)CC2)CC1", "note": "(stereo not drawn)", "hERG current change (%, negative = inhibition) at 1uM": 14.4}, {"smiles": "O=C(CSCc1cccc(Br)c1)N1CCOCC1", "hERG current change (%, negative = inhibition) at 1uM": 6.93}, {"smiles": "COc1cc(NC(=O)N[C@@H](CCSC)C(=O)O)cc(OC)c1", "hERG current change (%, negative = inhibition) at 1uM": 8.19}, {"smiles": "O=C(Nc1cccc(Cl)c1)N1CCN2C(=O)c3ccccc3C12c1ccccc1", "note": "(stereo not drawn)", "hERG current change (%, negative = inhibition) at 1uM": 7.7}, {"smiles": "COc1ccc(NC(=O)COc2cccc3c2CCN(Cc2cccnc2)C3=O)c(OC)c1", "hERG current change (%, negative = inhibition) at 1uM": -4.67}, {"smiles": "COc1ccc(NC(=O)C2CCCN2C(=O)NC2CCCCC2)cc1OC", "note": "(stereo not drawn)", "hERG current change (%, negative = inhibition) at 1uM": 4.54}, {"smiles": "COc1ccc(C(c2nnnn2Cc2ccccc2)N2CCN(c3ccccc3)CC2)cc1.Cl", "note": "(stereo not drawn)", "hERG current change (%, negative = inhibition) at 1uM": 9.8}, {"smiles": "CC(NC(=O)c1cccc(C(F)(F)F)c1)C(c1ccccc1)N1CCOCC1", "note": "(stereo not drawn)", "hERG current change (%, negative = inhibition) at 1uM": 8.37}, {"smiles": "CN(C)c1ccc(/C=C2\\N=C(c3ccc(Cl)c([N+](=O)[O-])c3)NC2=O)cc1", "hERG current change (%, negative = inhibition) at 1uM": 12.4}, {"smiles": "CCCCNC(=O)N1c2ccccc2CC1C", "note": "(stereo not drawn)", "hERG current change (%, negative = inhibition) at 1uM": 12.9}, {"smiles": "Cc1ccc(C(=O)NCC(=O)N2CCC3(CC2)NCCc2[nH]cnc23)cc1C", "hERG current change (%, negative = inhibition) at 1uM": 13.4}, {"smiles": "CCOC(=O)c1ccc(NS(=O)(=O)c2ccc(SC)cc2)cc1", "hERG current change (%, negative = inhibition) at 1uM": 10.5}, {"smiles": "O=C(COc1ccc(Cl)cc1Cl)NN1C(=O)C2C3C=CC([C@@H]2C1=O)C31CC1", "note": "(stereo partly drawn)", "hERG current change (%, negative = inhibition) at 1uM": 15}, {"smiles": "O=C(Nc1ccccc1Cl)C(=O)c1cn(CC(=O)N2CCOCC2)c2ccccc12", "hERG current change (%, negative = inhibition) at 1uM": 4.51}, {"smiles": "O=C(O)c1ccccc1C(=O)OCCCCOC(=O)c1ccccc1C(=O)O", "hERG current change (%, negative = inhibition) at 1uM": 2.08}, {"smiles": "CCOCc1cc(C2NC(=O)NC(C)=C2C(=O)OCC)ccc1OC", "note": "(stereo not drawn)", "hERG current change (%, negative = inhibition) at 1uM": 1.25}, {"smiles": "CCOC(=O)C1(Cc2ccccc2C(F)(F)F)CCN(C2CCN(C(C)=O)CC2)CC1", "hERG current change (%, negative = inhibition) at 1uM": -1.48}]}]}
